The structures appear in SMILES notation. About 14,000 (4.5%) of roughly 310,000 compounds showed an effect of 50% or more. The effect is printed as a negative number. Some of the results follow. Where a SMILES comes first, the peptide text is derived from it. [ ]: non-standard residue; d: D form. The star is where a group is joined. ξ: configuration not given here. Boc = CC(C)(C)OC(=O)*; ξP = O=C(O)C1CCCN1
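Also: peak tail current of the secondary pulse compared with the same well before compound.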

In the assay the target is human ether-à-go-go-related gene (hERG) potassium channel (human, UniProt Q12809). The experiment in a line: primary screen, population patch clamp on CHO cells stably expressing hERG.
human ether-à-go-go-related gene (hERG) potassium channel, sequence (Q12809 whole entry, looked up): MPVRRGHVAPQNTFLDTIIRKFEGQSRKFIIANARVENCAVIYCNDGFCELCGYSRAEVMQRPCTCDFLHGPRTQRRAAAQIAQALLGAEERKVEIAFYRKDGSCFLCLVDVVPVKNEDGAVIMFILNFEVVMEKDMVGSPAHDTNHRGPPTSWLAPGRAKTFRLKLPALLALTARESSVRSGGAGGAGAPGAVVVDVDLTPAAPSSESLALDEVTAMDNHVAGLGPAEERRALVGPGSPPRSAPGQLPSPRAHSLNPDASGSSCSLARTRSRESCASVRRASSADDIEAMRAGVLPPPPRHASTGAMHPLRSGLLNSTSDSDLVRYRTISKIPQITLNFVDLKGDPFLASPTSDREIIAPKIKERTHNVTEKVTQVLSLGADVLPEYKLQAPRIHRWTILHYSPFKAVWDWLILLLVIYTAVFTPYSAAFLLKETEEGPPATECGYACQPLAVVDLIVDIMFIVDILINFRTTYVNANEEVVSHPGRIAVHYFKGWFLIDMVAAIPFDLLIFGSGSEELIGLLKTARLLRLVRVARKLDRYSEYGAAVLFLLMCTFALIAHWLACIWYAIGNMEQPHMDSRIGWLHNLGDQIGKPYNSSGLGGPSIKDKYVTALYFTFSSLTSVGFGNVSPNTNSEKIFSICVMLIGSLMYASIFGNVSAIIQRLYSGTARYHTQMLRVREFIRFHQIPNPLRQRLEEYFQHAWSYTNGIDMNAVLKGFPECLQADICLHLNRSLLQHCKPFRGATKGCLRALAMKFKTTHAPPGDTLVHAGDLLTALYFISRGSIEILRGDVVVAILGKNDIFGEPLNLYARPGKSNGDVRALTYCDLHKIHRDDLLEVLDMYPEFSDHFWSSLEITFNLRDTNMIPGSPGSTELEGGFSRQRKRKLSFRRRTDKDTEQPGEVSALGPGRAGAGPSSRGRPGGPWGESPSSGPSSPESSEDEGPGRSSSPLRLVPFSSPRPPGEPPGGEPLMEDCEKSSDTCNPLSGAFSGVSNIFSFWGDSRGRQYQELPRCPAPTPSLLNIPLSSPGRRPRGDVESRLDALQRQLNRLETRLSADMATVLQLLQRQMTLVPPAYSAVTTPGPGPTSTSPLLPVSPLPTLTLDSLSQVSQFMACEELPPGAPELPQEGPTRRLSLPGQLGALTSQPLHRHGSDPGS
Consider `CCN1CCN(C(c2cccnc2)c2c(NC(=O)c3ccco3)sc(C)c2C)CC1` (stereo not drawn), for which the “hERG current change (%, negative = inhibition) at 10uM” value is given as -58.4%.
The value for `COC(=O)CNC(=O)C1CCCN1C(=O)CNC(=O)OC(C)(C)C` (stereo not drawn) (Boc-Gly-[ξP]-Gly-OMe) was 10.2%; that for `Cc1ccc(NS(=O)(=O)c2cccc(C(=O)N3CCCCCCC3)c2)cc1` was -34.1%; that for `Cc1cccc(NC(=S)N2CCN(Cc3ccc4c(c3)OCO4)CC2)c1C` was -16.1%.
With `O=c1oc(CCCO)cc2ccc(/C=C/c3cccc([N+](=O)[O-])c3)cc12`, the “hERG current change (%, negative = inhibition) at 10uM” value came to 11%.
Next, `Cc1ccc(N(C(=O)CNC(=O)c2ccco2)C(C(=O)NCC2CCCO2)c2ccccc2)c(C)c1` (stereo not drawn): -24.6%; `Cc1ccc(C)c(CSc2nnc(CCN)o2)c1.Cl`: 3.88%.
Next, `CCc1ccc2nc(NC(=O)Cn3cnc4ccccc4c3=O)sc2c1`: 9.75%; `O=C(Nc1cccc(NC(=O)c2ncn[nH]2)c1)c1cccc(Cl)c1`: 24%.
Take `Cc1ccc(NC(=O)CN(C)C(C)C(=O)N2CC(C)CC(C)C2)cc1` (stereo not drawn): the “hERG current change (%, negative = inhibition) at 10uM” value turned out to be 2.37%.
As for `O=C(Nc1ccccc1C(=O)O)c1cc(S(=O)(=O)Nc2ccccc2)ccc1Cl`, the “hERG current change (%, negative = inhibition) at 10uM” value is on record as 22.5%.
Take `COc1ccc(NC(=O)CSCC(=O)Nc2nnc(C)s2)cc1`: the “hERG current change (%, negative = inhibition) at 10uM” value was 19.3%.
The value for `CCC(CC)=NNC(=O)c1ccccc1OCc1ccc(F)cc1` was -15.1%; that for `CCO/C=C/C(O)(CNC(=O)COc1ccccc1F)C(F)(F)F` (stereo not drawn) was 10.5%; that for `COc1cccc(C(=O)N=c2sc3cc(S(C)(=O)=O)ccc3n2C)c1` was 34.3%.
Next, `Cc1cccc(C)c1NC(=S)Nc1ccccc1C(=O)NCc1ccco1`: -6.81%.
Next, `Cc1nn(-c2ccc(N3CCCCC3)nn2)c(C)c1CCC(=O)Nc1ccc(F)c(F)c1`: -29.5%; `COc1cc2c(cc1OC)/C(=C/C#N)NC(C)(C)C2`: 3.41%; `O=C(c1cc2cc(Cl)ccc2[nH]1)N1CCN(c2ccc(F)cc2)CC1`: 24.6%.
`CCCn1c(NC(=O)c2ccc(C)cc2)nc2ccccc21`: the “hERG current change (%, negative = inhibition) at 10uM” value is -22.8%.
The value for `CCC(=O)c1cc2c(C)cc(=O)oc2c(C)c1OC(C)=O` was -12.7%; that for `S=C1NC(c2ccccc2)N2C(=S)NC(c3ccccc3)N12` (stereo not drawn) was 3.59%; that for `COc1ccccc1CCNC1CCC(C)CC1` (stereo not drawn) was -17.3%.
The value for `COc1ccccc1N1CCN(C(=O)COc2ccc(S(=O)(=O)NC(C)(C)C)cc2)CC1` was 4.58%.
As to `CC(C)n1cnc2c(Nc3cccc(F)c3)nc(NCCO)nc21`, the “hERG current change (%, negative = inhibition) at 10uM” value was -10.8%.
The value for `Cc1cc(OCc2ccccc2)ccc1/C(O)=C1/C(=O)C(=O)N(Cc2cccnc2)C1c1ccncc1` (stereo not drawn) was 7.21%; that for `CCCCNC(=O)C(NS(=O)(=O)c1cccc2nsnc12)c1ccccc1` (stereo not drawn) was 0.33%.
As for `CCOC(=O)c1sc(=S)n(-c2ccc(Cl)cc2)c1SC`, the “hERG current change (%, negative = inhibition) at 10uM” value was -10.3%.
The value for `CN(c1ccc(F)cc1)S(=O)(=O)c1ccc(Cl)c(C(=O)OCC(=O)NCc2ccco2)c1` was -21.3%.
The value for `O=C(Nc1nc(-c2ccc3ccccc3c2)cs1)C1CCN(S(=O)(=O)c2cccs2)CC1` was 13.7%.
The value for `CCOc1ccccc1-n1c(SCC(=O)NC)nnc1-c1ccco1` was -2.06%; that for `O=C(Oc1cccc(/C=N/Nc2nc(N3CCOCC3)nc(N3CCOCC3)n2)c1)c1ccco1` was 5.48%; that for `CNC(=O)c1cc2ccc(OC)cc2oc1=O` was -3.97%.
`Cc1cccc(C)c1NC(=S)N/N=C/c1c(Cl)cccc1Cl`: the “hERG current change (%, negative = inhibition) at 10uM” value is reported as 7.04%.
For `O=C(O)/C=C\C(=O)Nc1cccc(C(=O)Nc2cccc(O)c2)c1`, the “hERG current change (%, negative = inhibition) at 10uM” value was 19.5%.
`CCOc1ccc(OCC)c(NC(=O)CSc2nnc(Cn3cnc4ccccc43)n2C)c1`: the “hERG current change (%, negative = inhibition) at 10uM” value is recorded as -47.9%.
For `CCOCCCNc1nc2c(-c3ccccc3)nnn2c2ccccc12`, the “hERG current change (%, negative = inhibition) at 10uM” value is 20%.
With `CC(C)NC(=O)CN1C(=O)C(C)(C)Oc2ccc(C(=O)NC3CCCCC3)cc21`, the “hERG current change (%, negative = inhibition) at 10uM” value was found to be 12.9%.
The value for `CCOC(=O)C1(Cc2cccc(OC)c2)CCN(Cc2cccc(O)c2)CC1` was -54.7%; that for `Cc1ccc(CN2C(=O)CCC2C(=O)NCc2ccc(F)cc2)cc1` (stereo not drawn) was -26.4%; that for `C/C(O)=c1/cnc2nc3ccccc3n2c1=O` was 14.7%.
In the case of `Cc1ccnc2nc(C(=O)NC3CCCc4ccccc43)nn12` (stereo not drawn), the “hERG current change (%, negative = inhibition) at 10uM” value worked out at 22.6%.
Regarding `Cc1cccc(-n2ncc3c2CCCC3NC(=O)Cn2cccn2)c1C` (stereo not drawn), the “hERG current change (%, negative = inhibition) at 10uM” value is reported as 5.82%.
The value for `O=C(COC(=O)/C=C/c1cccc(Br)c1)Nc1cccc(S(=O)(=O)NC2=NCCC2)c1` was -2.76%; that for `Cc1noc(C)c1CSc1ncnc2sc(C)c(C)c12` was 7.44%.
For `Cc1cc(C)c(S(=O)(=O)Nc2nnc(CC(C)C)s2)c(C)c1`, the “hERG current change (%, negative = inhibition) at 10uM” value is given as -2.24%.
`O=C(Cn1cnc2c(cnn2-c2ccccc2Cl)c1=O)N1CCc2ccccc21`: the “hERG current change (%, negative = inhibition) at 10uM” value is -0.441%.
With `O=c1c2ccccc2nnn1CSc1nc2cc(Cl)ccc2c(=O)n1Cc1ccco1`, the “hERG current change (%, negative = inhibition) at 10uM” value is on record as -4.29%.
For the compound `COc1ccc([N+](=O)[O-])cc1NC(=O)C(C)OC(=O)C1CC(=O)N(Cc2ccco2)C1` (stereo not drawn), the “hERG current change (%, negative = inhibition) at 10uM” value was -57.4%.
Next, `CC1CCCCN1C(=O)c1cc(-c2ccc(Cl)c(Cl)c2)on1` (stereo not drawn): -14.1%.
`Cc1nc(-c2nnc(SCC(=O)Nc3cc(C(F)(F)F)cc(C(F)(F)F)c3)n2C)cs1`: the “hERG current change (%, negative = inhibition) at 10uM” value worked out at 16%.
`CC1CC(C)CN(C(=O)CSc2nc3ccsc3c(=O)n2Cc2ccccn2)C1` (stereo not drawn): the “hERG current change (%, negative = inhibition) at 10uM” value was -19.2%.
The value for `CCOc1ccc(S(=O)(=O)NC(C)C(=O)NCc2ccccn2)cc1` (stereo not drawn) was 18.8%.
Consider `C=CCn1c(SCc2ccc(Br)cc2F)nc2cc(C(=O)O)ccc2c1=O`, for which the “hERG current change (%, negative = inhibition) at 10uM” value worked out at 78.1%.

Source of the values: PMC4336329 (PLoS ONE, 2015).
